# Hit rate of the full screen: of about 310,000 compounds, about 2,200 (0.71%) showed an effect of 50% or more. The effect is printed as a negative number. Some of the results follow.
# Target: human ether-à-go-go-related gene (hERG) potassium channel (human, UniProt Q12809)
# Assay: primary screen, population patch clamp on CHO cells stably expressing hERG
# human ether-à-go-go-related gene (hERG) potassium channel, sequence (Q12809 whole entry, looked up): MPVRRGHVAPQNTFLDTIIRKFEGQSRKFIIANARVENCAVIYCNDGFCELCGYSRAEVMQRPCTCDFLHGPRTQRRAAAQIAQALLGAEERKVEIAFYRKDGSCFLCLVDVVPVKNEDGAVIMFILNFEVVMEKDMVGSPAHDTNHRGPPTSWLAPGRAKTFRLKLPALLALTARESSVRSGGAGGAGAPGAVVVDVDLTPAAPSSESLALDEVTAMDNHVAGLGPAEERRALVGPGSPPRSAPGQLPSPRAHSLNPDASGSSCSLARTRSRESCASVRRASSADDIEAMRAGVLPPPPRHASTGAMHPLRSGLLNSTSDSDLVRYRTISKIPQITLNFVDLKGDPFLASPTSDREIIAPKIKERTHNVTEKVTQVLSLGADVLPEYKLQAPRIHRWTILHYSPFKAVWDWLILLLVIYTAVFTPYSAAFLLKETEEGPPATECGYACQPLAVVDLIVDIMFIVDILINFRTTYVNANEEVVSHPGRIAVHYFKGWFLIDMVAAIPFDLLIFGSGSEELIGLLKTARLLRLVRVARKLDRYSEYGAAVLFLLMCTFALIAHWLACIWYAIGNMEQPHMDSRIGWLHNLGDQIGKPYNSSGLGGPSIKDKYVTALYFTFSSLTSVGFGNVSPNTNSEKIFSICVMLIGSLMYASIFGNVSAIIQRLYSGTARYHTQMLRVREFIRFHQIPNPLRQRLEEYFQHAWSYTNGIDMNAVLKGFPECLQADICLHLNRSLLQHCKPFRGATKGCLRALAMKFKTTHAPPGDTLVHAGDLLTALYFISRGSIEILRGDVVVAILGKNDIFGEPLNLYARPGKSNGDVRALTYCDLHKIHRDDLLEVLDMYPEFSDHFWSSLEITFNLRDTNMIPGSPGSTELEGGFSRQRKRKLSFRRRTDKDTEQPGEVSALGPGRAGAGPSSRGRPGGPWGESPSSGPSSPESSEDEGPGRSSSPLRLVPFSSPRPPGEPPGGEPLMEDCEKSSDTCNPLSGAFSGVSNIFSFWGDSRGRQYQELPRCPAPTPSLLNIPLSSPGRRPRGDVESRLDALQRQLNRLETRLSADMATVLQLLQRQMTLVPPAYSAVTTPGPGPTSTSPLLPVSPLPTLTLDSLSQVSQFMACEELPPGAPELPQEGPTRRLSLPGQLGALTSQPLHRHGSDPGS
row,Structure (SMILES),"hERG current change (%, negative = inhibition) at 1uM [%]"
1,C/C=C/C(=O)Nc1nnc(C2CCCCC2)s1,7.19
2,O=[N+]([O-])c1ccc(/C=N/Nc2cc(Cl)nc(-c3ccccc3)n2)cc1,-0.0273
3,O=C(Nc1c(F)cccc1F)c1cnc(N2CCN(c3ccccn3)CC2)c2ccccc12,1.75
4,CCN1CCN(C(CNS(=O)(=O)c2ccccc2)c2ccccc2)CC1 (stereo not drawn),-3.2
5,CCCCSc1nc(O)cc(=O)n1CC,3.13
6,CCOC(=O)C1=C(C)N=c2s/c(=C/c3ccco3)c(=O)n2C1c1cccc(OC)c1 (stereo not drawn),11.9
7,Cc1ccc(NC(=O)CN(C)CC(=O)Nc2ccc(N3CCOCC3)cc2)c([N+](=O)[O-])c1,-2.38
8,C/C(=N\NC(=O)c1nnn(-c2nonc2N)c1C)c1ccc(OCc2ccccc2)cc1,16.2
9,CN(C)CCOC(=O)COc1ccc(Cl)cc1.Cl,5.74
10,CC(=O)Nc1nc(-c2ccc3c(c2)OCO3)cs1,7.16
11,O=C(CSc1ccccc1)N1CCN(C(=O)c2ccco2)CC1,6.86
12,O=C(Nc1ccc(N2CCN(C(=O)c3cccs3)CC2)cc1)c1ccco1,17.4
13,O=C(N/N=C/c1cccnc1)C1CCCCC1,14.9
14,Cc1ccc(NC(=O)C2(N3CCC3=O)CCCCC2)cc1,-2.83
15,O=C(Cn1cnc2c(nnn2Cc2ccc(Cl)cc2)c1=O)OCc1ccccc1,7.62
16,COc1cccc(CNC(=O)c2cnc(-c3ccccn3)nc2C(F)(F)F)c1,8.42
17,Cc1cccc(C)c1NC(=O)C(C)N1CCCCC1 (stereo not drawn),9.5
18,COc1ccc(NC(=O)c2cc([N+](=O)[O-])ccc2N2CCNCC2)cc1,-4.04
19,O=S(=O)(NCc1ccccc1)c1cccc2cccnc12,0.579
20,CCOC(=O)N1CCC(NC(=O)CC2C(=O)NCCN2Cc2cccc(F)c2F)CC1 (stereo not drawn),-11.3
21,O=[N+]([O-])C(=C1SCCS1)C(=C(Cl)Cl)N1CCCCC1,13.1
22,CCCCOc1ccc(CNC(=S)N/N=C/c2ccc(OC)c(OC)c2)cc1,9.98
23,CC1OC(Nc2ccc(OC(F)(F)F)cc2)C(O)C(O)C1O (stereo not drawn),9.4

row,Structure (SMILES),"hERG current change (%, negative = inhibition) at 1uM [%]"
1,O=[N+]([O-])c1ccc2nc(N3CCCC3)sc2c1,23
2,Cc1occc1C(=O)Nc1ccccc1C(=O)O,6.93
3,Cc1ccc(C2=NCCNC2=O)c(C)c1,5.55
4,Cc1cc(C)c2cc(C(c3nnnn3CC3CCCO3)N3CCN4CCCC4C3)c(=O)[nH]c2c1 (stereo not drawn),13.2
5,O=C(CN1CCCC1)Nc1ccc(Oc2ccc(NC(=O)CN3CCCC3)cc2)cc1,13.5
6,N#CCC(=O)N/N=C/c1ccc(OC2CSC2)cc1,20.2
7,COC(=O)c1ccccc1S(=O)(=O)NNC(=O)c1ccccc1-n1cccc1,17.4
8,COc1ccc(S(=O)(=O)NC(C)(C)C)cc1-c1nnc2c3ccccc3c(C)nn12,2.51
9,Cc1cc(=O)n2c(n1)NC(=NCc1ccccc1)NC2c1ccccc1 (stereo not drawn),13.8
10,CC(C)(C)c1ccc(-c2nnc3sc(-c4ccncc4)nn23)cc1,1.55
11,CCN(CC)C(=O)CSc1nnc([C@H](CCSC)NC(=O)OC(C)(C)C)o1,1.61
12,Cc1ccccc1NC(=S)NCCC(c1ccccc1)c1ccccc1,5.52
13,Cl.N=c1sccn1CC(=O)Nc1ccccc1Cc1ccccc1,-11.4
14,Fc1ccc2c(c1)Sc1ccc(Cl)cc1CC2N1CCN(CCC2OCCO2)CC1 (stereo not drawn),5.43
15,O=C(c1ccc(Cl)c(Cl)c1)N(Cc1ccco1)c1ccc(O)cc1,12
16,O=S(=O)(c1ccc(NC(=S)NCc2ccco2)cc1)N1CCCCC1,13.4
17,O=C1CC(N2CCN(C(c3ccccc3)c3ccccc3)CC2)C(=O)N1Cc1ccc(N2CCCC2=O)cc1 (stereo not drawn),9.25
18,O=C(N/N=C/C1CC2CCC1C2)c1ccc2c(c1)OCO2 (stereo not drawn),0.955
19,CC(=O)NS(=O)(=O)c1ccc(N=NN2CCCCC2)cc1,1.53
20,Cc1nc2ccc(Cl)cc2c(-c2ccccc2)c1C(=O)N(C)C.Cl,9.56
21,CCOC(=O)CSc1[nH]c(=O)cc(C)c1C#N,8.55
22,O=C(NCc1cccnc1)C1CCC(c2ccc(Cl)cc2)CC1 (stereo not drawn),9.17
23,O=C(NC1CCCC1)c1ccc(S(=O)(=O)N2CCOCC2)cc1,6.01

row,Structure (SMILES),"hERG current change (%, negative = inhibition) at 1uM [%]"
1,CC(=O)Cn1cnc2scc(-c3ccc(C)c(C)c3)c2c1=O,16.6
2,CCOC(=O)c1cnc2c(C)c(-c3ccccc3)[nH]n2c1=O,10.3
3,COc1ccc(N2CCN(C(CNC(=O)C(=O)NCc3ccncc3)c3ccco3)CC2)cc1 (stereo not drawn),-0.171
4,O=C(CCc1ccccc1)C(=O)N1CCCC(C(=O)c2cccc(Cl)c2)C1 (stereo not drawn),1.94
5,Cc1ccccc1CCNC(=O)c1ccc(Cl)c(S(=O)(=O)N2CC(C)OC(C)C2)c1 (stereo not drawn),-6.7
6,CC(C)C[C@H]1CN=C(Nc2ccccc2)N1CC(C)C,7.94
7,Cc1cccc(CN2CCN(CC(=O)NCCCN3CCCC3=O)C2=O)c1,11.8
8,CSCC(=O)NC1CCCc2c1cnn2-c1ccc(C)c(C)c1 (stereo not drawn),0.909
9,Cc1ccc(-n2c(SCC(=O)NCc3ccco3)nnc2-c2cccnc2)c(C)c1,-1.18
10,Cc1coc2c1c(C)cc1oc(=O)c(CC(=O)NCCCN3CCCC3=O)c(C)c12,-0.708
11,Cc1ccc(NC(=O)CN2C(=O)NC3(CCCCCC3)C2=O)cc1Cl,13.6
12,CCCN(CCC)S(=O)(=O)c1ccc(C(=O)Nc2nnc(-c3cccc(OC)c3)o2)cc1,14.6
13,Cc1cc(=O)oc2cc(OC(C)C(=O)NCCc3ccc(S(N)(=O)=O)cc3)ccc12 (stereo not drawn),9.16
14,Cc1ccc(/C=C/C(=O)OCC(=O)NCCN2C(=O)CSC2=O)o1,34.3
15,CS(=O)(=O)N(CC(=O)Nc1ccccc1)Cc1ccc(Cl)cc1,-4.94
16,O=C(CNc1ccc2ccccc2c1)N/N=C/c1cc2ccccc2nc1Cl,12.9
17,O=C(Nc1ccc(N2CCN(C(=O)c3ccco3)CC2)cc1)c1ccc(F)cc1,4.54
18,CCCOc1ncnc2c1sc1nc3c(cc12)COC(C)(C)C3,5.61
19,O=C(CSc1nncs1)Nc1ccc(N2CCCCC2)cc1,3.47
20,O=C(NCC#CCOCc1ccccc1)c1ccccc1,9.56
21,C/C(=N\Nc1ccc(S(=O)(=O)Nc2ccc(Cl)cc2)cc1[N+](=O)[O-])c1ccc(N2CCOCC2)cc1,4.97
22,Cc1cccc2c1NC(=O)C21OCC(CO)([N+](=O)[O-])CO1 (stereo not drawn),12.8
23,Cc1ccc(COC(=O)NCc2cccnc2)cc1,18.3

row,Structure (SMILES),"hERG current change (%, negative = inhibition) at 1uM [%]"
1,Cc1ccc(S(=O)(=O)N(CC(=O)N/N=C/c2cccc3c2OCCO3)c2ccccc2F)cc1,-2.22
2,CC(=O)c1c(-c2ccccc2)[nH]c2ccccc12,10.9
3,COc1ccccc1CN1CC(C(=O)NCCSc2nnnn2C)CCC1=O (stereo not drawn),17.1
4,CSc1ccc(/C=N/NC(=O)CN2CCN(Cc3ccccc3Cl)CC2)cc1,5.23
5,CC(C)c1cccc(C(C)C)c1OCCCCN1CCCC1,8.11
6,COc1ccccc1Cn1c(C)nnc1-c1cnn(C)c1N,5.1
7,O=C(CN1C(=O)c2ccccc2C1=O)Nc1ccccc1C(=O)NC1CCCCC1,8.66
8,COc1ccc(C(C)(C)C)cc1NC(=S)NCCN1CCOCC1,10.3
9,COc1ccc(-c2c(NC(=O)c3ccco3)oc3ccccc3c2=O)cc1OC,14.5
10,Cc1ccccc1C(=O)N(Cc1nc2ccccc2c(=O)[nH]1)C1CCCC1,4.04
11,Cc1cc(C)cc(NC(=O)Cn2c(=O)oc3cc(S(=O)(=O)N4CCC(C)CC4)ccc32)c1,2.6
12,CC(SC(=S)N(C)Cc1cccs1)C(=O)O (stereo not drawn),6.51
13,Cl.OCc1ccccc1CNCc1ccccc1,9.84
14,O=C(N/N=C/c1cn(-c2ccccc2)nc1-c1ccc2c(c1)OCCO2)c1ccncc1,3.98
15,CC(=O)C1C(c2ccc(OC(F)F)cc2)NC(=O)NC1(O)C(F)(F)F (stereo not drawn),12.8
16,O=C(NCc1ccccc1Cl)c1cnc2n(c1=O)CCS2,5.49
17,CCN(CC)CC(=O)NN=C(c1ccccc1)c1ccccc1,-78.2
18,CN(C)Cc1ccc(F)cc1Sc1ccc(Cl)cc1Cl.Cl,13.7
19,CC1=NCCN1S(=O)(=O)c1cc([N+](=O)[O-])ccc1Cl,9.27
20,O=C(NCCCn1ccnc1)/C(=C/c1ccco1)NC(=O)c1cccs1,-27.4
21,CS(=O)(=O)NCCSCc1ccccc1,-21.4

# — PMC4336329 (PLoS ONE, 2015)
